In patent US20170173134A1 (priority 2011, published 2017):
Where “and” joins values, the source holds several entries; their conditions need not be identical. Identical values can stand only once. Like-named read-outs stand apart in the source and are kept apart here.

Columns and labels:
[1] = system: MNU-induced urinary bladder carcinoma; format: in vivo, rats
[2] = system: MNU-induced urinary bladder carcinoma; experiment: Second experiment (Table 5): histological assessment, MNU-induced bladder cancer; format: in vivo, rats
Procedure: The therapeutic effect in urinary bladder cancer in animals was assessed by histological evaluation of the tissues. The criteria for assessing normality of the tissues examined for all the experiments using the same animal model, that is, the experiments reported in Table 4, Table 5, Table 6-A, Table 6-B, Table 6-C and Table 6-D are: normal tissue, flat hyperplasia, papillary hyperplasia.
Flat hyperplasia and papillary hyperplasia are reactive changes of an inflammatory nature, though benign, and their occurrence in the experiments for assessment of new drugs in animals affected with cancer, indicates a reversal of the cancer process to non-cancerous stages.
Metaplasia is defined as the replacement of a normal functional tissue with another tissue with different structure, with loss of function, and, thus, is considered a form of premalignant lesion.
[…] animals (n=50) were used in the experiment. The therapeutic effect was assessed through histological assessment of tissues, and the toxicological effect of the compounds, through assessment of the presence or absence of urinary bleeding also called hematuria.
All the animals in the experiment were subjected to intravesical applications of 1.5 mg/kg of n-methyl-n-nitrosourea (MNU) dissolved in 0.30 mL of sodium citrate, using a catheter, for 7 weeks. One group (control) of 10 animals was given only saline solution ([…]), also intravesically and for an equal period.
The purpose of using n-methyl-n-nitrosourea (MNU) was to experimentally induce immunosuppression and subsequently producing urinary bladder carcinoma. After treatment with MNU, the animals were divided into 05 groups of 10 animals each. […]
For the histological examinations, sections (2 μm) of the tissue of the urinary bladder were cut using microtome Zeiss, mounted on microscope slides, and stained with hematoxylin-eosin (HE), for subsequent pathology assessment, quantification of cellular changes and comparison between control and treatment groups.

[3] = system: MNU-induced cancerous lesions of the urinary bladder; format: in vivo, Fischer 344 rats; conditions: n = 10
[4] = system: MNU-induced cancerous lesions of the urinary bladder; experiment: Table 6-B: histological assessment, saline versus Poloxamer formulation; format: in vivo, Fischer 344 rats
Procedure: Fifty (50) Fischer 344 rats, aged 7 weeks, weighing in average 150 grams were used in this experiment.
All the animals (Fischer 344 rats), except for the untreated control group (Table 6B-Group A), were subjected to applications of 1.5 mg/kg of n-methyl-n-nitrosourea (MNU) dissolved in 0.30 ml of sodium citrate, intravesically, using a catheter (for insertion in the bladder) for 7 weeks for bladder cancer induction. After administration of MNU the animals were divided into 5 groups of 10 animals each.
One group (untreated control) of 10 animals was given only saline solution (NaCl 0.9%) also intravesically and for an equal period (Table 6B-Group A).
All the compounds were intravesically inoculated, with a catheter (for insertion into the bladder) for this purpose, for 6 consecutive weeks, for comparative assessment in the treatment of MNU-induced cancerous lesions.

[5] = system: MNU-induced bladder cancer; format: in vivo, female Fischer 344 rats
[6] = system: bladder cancer induced by MNU; format: in vivo, Fischer rats
[7] = system: cervical dysplasia; experiment: Table 8-B: clinical trial in HPV-related cervical dysplasia, Papanicolaou classification; format: in vivo, human
From the text: All patients had previous history of routine surgical procedures for removal of the damaged tissue (electrocauterization) in the months prior to the clinical trial, with recurrence of dysplasia and infection in all the cases. The patients underwent routine examinations before the clinical trial for evaluation of the degree of dysplasia (Papanicolaou test) and cervical smears were taken for human papilloma virus (HPV) testing and typing. […] Periodicity: Collection of cervical smear for the test and classification of dysplasia and HPV were performed in the pretreatment period (basal) and 6 months after the end of the clinical trial. Characterization of the sample: Patients previously treated with surgery (electrocauterization) and showing signs of recurrent cervical dysplasia, classified by the Papanicolaou test as moderate to severe dysplasias, upon admission to the clinical trial (Table 8-A). Clinical trial design: All patients underwent the same surgical procedure, that is, electrocauterization for removal of the abnormal tissue (dysplasia). […] Follow-up: All patients were followed monthly through clinical examinations and colposcopy.

[8] = system: HPV (HPV 11, HPV 16/18); experiment: Table 8-B: HPV detection and viral typing by PCR (Kit Amplicor); design: species or system human; conditions: in vivo
Procedure: The patients underwent routine examinations before the clinical trial for evaluation of the degree of dysplasia (Papanicolaou test) and cervical smears were taken for human papilloma virus (HPV) testing and typing.
Periodicity: Collection of cervical smear for the test and classification of dysplasia and HPV were performed in the pretreatment period (basal) and 6 months after the end of the clinical trial.

[9] = 10 mg/kg intravesical, 14 weeks; n = 10
[10] = n = 10
[11] = n = 10; remark: listed apart in the source
[12] = system: 53 tumor cell cultures representing 8 distinct tumor types and leukemia; conditions: cited from earlier work
[13] = Table 5 experiment, intravesical

proteic aggregate of ammonium and magnesium phospholinoleate-palmitoleate anhydride [immunomodulator]
Flat hyperplasia, animals ([1]; n = 10): 06 (60%) | High-grade intra-epithelial carcinoma (carcinoma in situ-Tis), animals ([1]; rat, in vivo): 01 (10%) | Low grade Intraepithelial neoplasia, animals ([1]; rat, in vivo): 04 (40%) | Papillary carcinoma (Ta), animals ([1]; rat, in vivo): 01 (10%) | Papillary hyperplasia, animals ([1]; rat, in vivo): 02 (10%) | Squamous metaplasia, animals ([1]; rat, in vivo): 02 (20%) | animals with positive result / positive outcome (histopathology) ([1]; rat, in vivo): 80% | Flat hyperplasia, animals ([2]; MNU-induced bladder cancer, 10 mg/kg intravesical (topical application), 14 weeks, n = 10): 05 (50%) n (%) | animals that had hyperplasia [2, 13]: 70% | therapeutic effectiveness / efficacy [2, 13]: ~100% | Flat hyperplasia, animals [3]: 4(40%) | Normal, animals [3]: 3(30%) | Papillary hyperplasia, animals [3]: 3(30%) | lowest concentration experimentally obtained to produce therapeutic effects with topical use ([4]; even using Poloxamers as carriers): 1 mg/mL | tumor reversion ([4]; topical use 10 mg/kg in saline, Group C Table 6-B): 90% | Flat Hyperplasia, number of animals ([5]; n = 10): 4 | Normal, number of animals ([5]; n = 10): 4 | Papillary hyperplasia, number of animals ([5]; n = 10): 2 | success rate / responders ([5]; rat, in vivo): 100% | Flat Hyperplasia, number of animals ([6]; n = 6): 2 and 1 | Low-grade Intraurothelial Neoplasia, number of animals ([6]; n = 6): 1 | Normal, number of animals ([6]; n = 6): 2 | Papillary hyperplasia, number of animals ([6]; n = 6): 2 | recurrent or refractory / malignant lesions ([6]; rat, in vivo): 17% | responders (absence of malignant lesions) ([6]; rat, in vivo): 83% | Number of patients without dysplasia (mild, moderate, severe) and without HPV type associated ([7]; 180 days after the end, electrocauterization + topical cream 20% daily intrauterine for 2 weeks, 25 patients): 20 | recurrence rate of cervical dysplasia ([7]; associated to surgery (electrocauterization), 180 days after the end of the clinical trial): 0% | Number of patients without dysplasia, HPV type associated HPV 11 [8]: 3 | Number of patients without dysplasia, HPV type associated HPV 16/18 [8]: 2 | patients who still had HPV [8]: 5 | Toxicology: (Hematuria) (N = 10): Positive | Toxicology: (Hematuria), % of animals (N = 10): (100%) | Toxicology: (Hematuria) (n = 10): Negative | Toxicology: (Hematuria), % of animals (n = 10): (0%) | Toxicology: (Hematuria) [9]: Negative | Toxicology: (Hematuria), % of animals [9]: (0%) | Toxicology: Presence of hematuria [10]: Negative | Toxicology: Presence of hematuria, % of animals [10]: (0%) | Toxicology: (Hematuria), presence [11]: No | Cytotoxicity [12]: did not display cytotoxicity
